These are yes or no findings as the source states them, for the method shown. For some assays here: In cells and extracts the contact can be indirect. Some entries that bind do so weakly or less than the wild type. For some assays here: Where a sequence is shown, tags or fusion partners need not be part of it.
Legend:
[1] = biological target: Flag-DOT1L(WT) (UniProt Q8TEK3); assay: co-IP; exogenous (transfected) proteins, HCT116 cells; NP-40 lysis buffer, protein A/G sepharose beads
[2] = biological target: DOT1L (endogenous) (human (endogenous in HCT116)) (UniProt Q8TEK3); assay: co-IP; endogenous proteins, HCT116 cells; lysis in 20 mM Tris-HCl pH 7.9, 1% NP-40, 150 mM NaCl, 2 mM EDTA, 10% glycerol; antibody or control IgG overnight, protein A/G sepharose beads at 4°C
[3] = biological target: Flag-DOT1L(K358R) (UniProt Q8TEK3); assay: co-IP; HCT116 cells transfected with DOT1L(WT), DOT1L(K358Q) or DOT1L(K358R); co-IP with RNF8
[4] = biological target: Flag-DOT1L(WT) (UniProt Q8TEK3); assay: as above
[5] = biological target: DOT1L (endogenous) (human (endogenous in HCT116)) (UniProt Q8TEK3); assay: co-IP; endogenous proteins, nuclear proteins extracted from HCT116 cells (LoVo cells too); also after transfection of HA-CBP or pcDNA and after CBP siRNA or shNC
[6] = biological target: Flag-DOT1L(WT) (UniProt Q8TEK3); assay: co-IP; exogenous (transfected) proteins, nuclear proteins extracted from HCT116 cells (LoVo cells too)
[7] = biological target: T1, GST-DOT1L STAT1 binding domain (580-1138aa) (UniProt Q8TEK3); assay: pull-down; purified GST or GST-DOT1L fragments on glutathione-Sepharose 4B beads incubated with His-RNF8 overnight at 4°C; washed with TEN buffer; western blot for His-RNF8, CBB staining for the GST proteins; both purified
T1 sequence: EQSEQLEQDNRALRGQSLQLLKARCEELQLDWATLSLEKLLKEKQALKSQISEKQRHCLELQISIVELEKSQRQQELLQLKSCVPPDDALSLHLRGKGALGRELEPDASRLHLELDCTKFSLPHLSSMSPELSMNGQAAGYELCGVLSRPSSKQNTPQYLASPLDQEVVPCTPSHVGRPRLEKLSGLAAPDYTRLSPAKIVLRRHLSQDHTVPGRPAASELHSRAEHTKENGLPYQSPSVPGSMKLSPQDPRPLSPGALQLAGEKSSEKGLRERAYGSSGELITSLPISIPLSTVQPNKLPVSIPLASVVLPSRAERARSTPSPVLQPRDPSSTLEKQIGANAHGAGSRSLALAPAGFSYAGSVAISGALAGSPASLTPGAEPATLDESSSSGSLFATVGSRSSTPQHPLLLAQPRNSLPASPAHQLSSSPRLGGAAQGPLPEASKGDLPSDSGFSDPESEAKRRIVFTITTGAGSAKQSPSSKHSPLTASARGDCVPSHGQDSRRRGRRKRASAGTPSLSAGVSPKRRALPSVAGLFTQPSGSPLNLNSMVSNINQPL

Sequences of proteins named here, by UniProt entry; tags and fusion partners are left off. A change or cut given only in a name is not applied to a line headed by its entry.
UniProt Q92793: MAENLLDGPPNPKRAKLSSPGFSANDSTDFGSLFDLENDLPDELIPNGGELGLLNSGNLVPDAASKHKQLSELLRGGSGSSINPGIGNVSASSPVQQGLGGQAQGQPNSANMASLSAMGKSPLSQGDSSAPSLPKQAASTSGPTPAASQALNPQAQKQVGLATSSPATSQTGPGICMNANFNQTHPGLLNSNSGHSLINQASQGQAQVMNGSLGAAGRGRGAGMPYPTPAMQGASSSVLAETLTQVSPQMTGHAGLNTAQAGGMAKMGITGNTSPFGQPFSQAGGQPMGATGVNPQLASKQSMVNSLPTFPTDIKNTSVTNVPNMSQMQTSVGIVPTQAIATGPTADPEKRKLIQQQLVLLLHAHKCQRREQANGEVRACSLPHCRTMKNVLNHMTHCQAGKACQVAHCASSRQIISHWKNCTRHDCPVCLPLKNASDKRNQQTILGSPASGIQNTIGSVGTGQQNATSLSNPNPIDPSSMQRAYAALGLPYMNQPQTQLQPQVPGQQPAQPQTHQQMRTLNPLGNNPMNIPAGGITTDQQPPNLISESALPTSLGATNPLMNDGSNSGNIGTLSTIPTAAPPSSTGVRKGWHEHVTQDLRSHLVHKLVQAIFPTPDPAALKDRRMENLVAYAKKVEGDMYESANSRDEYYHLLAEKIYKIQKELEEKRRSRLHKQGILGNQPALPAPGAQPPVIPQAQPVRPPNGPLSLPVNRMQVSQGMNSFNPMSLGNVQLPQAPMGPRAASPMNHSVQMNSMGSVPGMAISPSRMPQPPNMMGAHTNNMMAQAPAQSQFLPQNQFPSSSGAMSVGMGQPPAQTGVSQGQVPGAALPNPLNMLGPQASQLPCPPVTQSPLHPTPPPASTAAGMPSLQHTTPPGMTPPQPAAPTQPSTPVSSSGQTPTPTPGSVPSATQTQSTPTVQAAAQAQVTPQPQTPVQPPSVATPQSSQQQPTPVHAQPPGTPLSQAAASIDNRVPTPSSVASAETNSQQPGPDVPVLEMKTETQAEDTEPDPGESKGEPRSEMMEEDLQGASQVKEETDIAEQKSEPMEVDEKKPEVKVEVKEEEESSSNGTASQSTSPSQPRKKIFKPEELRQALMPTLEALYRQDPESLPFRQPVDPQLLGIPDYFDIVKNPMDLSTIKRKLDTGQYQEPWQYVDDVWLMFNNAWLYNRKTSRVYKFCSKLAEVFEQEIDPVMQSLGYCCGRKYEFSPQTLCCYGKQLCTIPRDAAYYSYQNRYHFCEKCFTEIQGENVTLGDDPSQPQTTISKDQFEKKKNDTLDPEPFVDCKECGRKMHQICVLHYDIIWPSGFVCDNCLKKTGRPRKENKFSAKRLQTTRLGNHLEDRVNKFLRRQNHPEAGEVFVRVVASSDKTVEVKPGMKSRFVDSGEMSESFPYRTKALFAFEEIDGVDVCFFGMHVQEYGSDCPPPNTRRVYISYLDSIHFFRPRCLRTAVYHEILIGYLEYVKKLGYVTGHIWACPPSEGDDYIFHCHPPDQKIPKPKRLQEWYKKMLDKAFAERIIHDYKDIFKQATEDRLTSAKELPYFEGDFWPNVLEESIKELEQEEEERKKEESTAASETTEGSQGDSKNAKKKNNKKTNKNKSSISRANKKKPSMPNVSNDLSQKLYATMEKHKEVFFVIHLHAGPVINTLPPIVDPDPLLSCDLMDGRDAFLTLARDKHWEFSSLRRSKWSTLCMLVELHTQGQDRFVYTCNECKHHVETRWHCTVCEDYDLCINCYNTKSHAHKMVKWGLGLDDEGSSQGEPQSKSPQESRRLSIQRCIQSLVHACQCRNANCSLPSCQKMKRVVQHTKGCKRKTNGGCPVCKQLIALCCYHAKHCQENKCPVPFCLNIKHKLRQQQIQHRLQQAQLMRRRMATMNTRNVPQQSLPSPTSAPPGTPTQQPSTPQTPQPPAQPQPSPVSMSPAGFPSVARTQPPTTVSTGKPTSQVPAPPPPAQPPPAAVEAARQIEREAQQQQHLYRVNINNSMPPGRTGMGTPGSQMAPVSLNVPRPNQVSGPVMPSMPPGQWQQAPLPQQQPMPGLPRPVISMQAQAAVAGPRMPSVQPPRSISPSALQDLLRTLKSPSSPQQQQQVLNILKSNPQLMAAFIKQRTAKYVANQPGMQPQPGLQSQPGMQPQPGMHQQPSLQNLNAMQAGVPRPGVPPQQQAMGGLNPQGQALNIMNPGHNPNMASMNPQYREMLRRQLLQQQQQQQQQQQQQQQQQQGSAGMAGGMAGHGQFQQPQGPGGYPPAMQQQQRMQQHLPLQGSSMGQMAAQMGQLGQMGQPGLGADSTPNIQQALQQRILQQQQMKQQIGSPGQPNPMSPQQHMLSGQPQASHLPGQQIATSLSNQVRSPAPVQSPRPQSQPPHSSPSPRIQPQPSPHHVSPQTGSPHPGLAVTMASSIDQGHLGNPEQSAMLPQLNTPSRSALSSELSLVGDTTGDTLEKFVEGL

[8] = biological target: T2, GST-DOT1L C-terminal domain (1139-1537aa) (UniProt Q8TEK3); assay: as above
T2 sequence: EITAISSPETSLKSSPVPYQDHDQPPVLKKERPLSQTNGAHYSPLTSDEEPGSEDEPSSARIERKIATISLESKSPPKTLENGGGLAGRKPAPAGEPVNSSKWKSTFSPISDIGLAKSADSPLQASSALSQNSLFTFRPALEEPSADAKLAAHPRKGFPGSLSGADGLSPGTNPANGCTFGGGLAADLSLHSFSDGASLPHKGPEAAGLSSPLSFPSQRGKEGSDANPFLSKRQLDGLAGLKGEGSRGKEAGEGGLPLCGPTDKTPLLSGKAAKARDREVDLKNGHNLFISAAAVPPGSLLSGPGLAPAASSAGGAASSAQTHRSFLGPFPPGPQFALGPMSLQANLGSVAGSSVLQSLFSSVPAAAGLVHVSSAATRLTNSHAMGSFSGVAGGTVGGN

[9] = biological target: GST-DOT1L N-terminal domain (1-416aa) (UniProt Q8TEK3); assay: as above
[10] = biological target: T3, GST-DOT1L N-terminal central region domain (417-579aa) (UniProt Q8TEK3); assay: as above
T3 sequence: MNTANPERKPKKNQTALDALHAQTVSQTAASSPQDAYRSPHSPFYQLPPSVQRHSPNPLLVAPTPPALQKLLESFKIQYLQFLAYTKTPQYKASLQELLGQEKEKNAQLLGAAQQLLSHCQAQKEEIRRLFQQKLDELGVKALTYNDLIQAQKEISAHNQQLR

[11] = substrate: CBP (GST pull-down of Figure S6A) (UniProt Q92793); assay: pull-down; GST pull-down of RNF8 and CBP (Figure S6A); which protein carried GST is not stated

HA-CBP (from UniProt Q92793 1-2442)
binding [1]: binds

CBP (endogenous) (from UniProt Q92793 1-2442)
binding [2]: binds

B1: RNF8 (endogenous) (protein, UniProt O76064 1-485)
chain: MGEPGFFVTGDRAGGRSWCLRRVGMSAGWLLLEDGCEVTVGRGFGVTYQLVSKICPLMISRNHCVLKQNPEGQWTIMDNKSLNGVWLNRARLEPLRVYSIHQGDYIQLGVPLENKENAEYEYEVTEEDWETIYPCLSPKNDQMIEKNKELRTKRKFSLDELAGPGAEGPSNLKSKINKVSCESGQPVKSQGKGEVASTPSDNLDPKLTALEPSKTTGAPIYPGFPKVTEVHHEQKASNSSASQRSLQMFKVTMSRILRLKIQMQEKHEAVMNVKKQTQKGNSKKVVQMEQELQDLQSQLCAEQAQQQARVEQLEKTFQEEEQHLQGLEIAQGEKDLKQQLAQALQEHWALMEELNRSKKDFEAIIQAKNKELEQTKEEKEKMQAQKEEVLSHMNDVLENELQCIICSEYFIEAVTLNCAHSFCSYCINEWMKRKIECPICRKDIKSKTYSLVLDNCINKMVNNLSSEVKERRIVLIRERKAKRLF
binding [3]: binds | binding [4]: binds | binding [5]: binds

B2: GFP-RNF8 (protein, UniProt O76064 1-485)
chain: B1 chain
binding [6]: binds

B3: His-RNF8 (protein, UniProt O76064 1-485)
chain: B1 chain
binding [7]: binds | binding [8]: no binding | binding [9]: binds | binding [10]: binds

B4: RNF8 (GST pull-down of Figure S6A) (protein, UniProt O76064 1-485)
chain: B1 chain
binding [11]: no binding

Source: PMC6993218
